Measurements as given in US8735360B2 (priority 2009, dated 2014).
Where two headings read alike, the source gives them in different places. At least one structure is not confirmed: it was looked up by name or label, or the drawing left a doubt. Positions of bridges follow the written chain, without caps; N, C: chain ends. Residues, ends and D or L forms follow the SMILES beside them.

Key:
[1] = molecular target: T1, GC-C (Homo sapiens, UniProt P25092); format: cell-based; conditions: 30 min, 37 C, 1 mM IBMX
T1 sequence (P25092 24-1073 limits assumed): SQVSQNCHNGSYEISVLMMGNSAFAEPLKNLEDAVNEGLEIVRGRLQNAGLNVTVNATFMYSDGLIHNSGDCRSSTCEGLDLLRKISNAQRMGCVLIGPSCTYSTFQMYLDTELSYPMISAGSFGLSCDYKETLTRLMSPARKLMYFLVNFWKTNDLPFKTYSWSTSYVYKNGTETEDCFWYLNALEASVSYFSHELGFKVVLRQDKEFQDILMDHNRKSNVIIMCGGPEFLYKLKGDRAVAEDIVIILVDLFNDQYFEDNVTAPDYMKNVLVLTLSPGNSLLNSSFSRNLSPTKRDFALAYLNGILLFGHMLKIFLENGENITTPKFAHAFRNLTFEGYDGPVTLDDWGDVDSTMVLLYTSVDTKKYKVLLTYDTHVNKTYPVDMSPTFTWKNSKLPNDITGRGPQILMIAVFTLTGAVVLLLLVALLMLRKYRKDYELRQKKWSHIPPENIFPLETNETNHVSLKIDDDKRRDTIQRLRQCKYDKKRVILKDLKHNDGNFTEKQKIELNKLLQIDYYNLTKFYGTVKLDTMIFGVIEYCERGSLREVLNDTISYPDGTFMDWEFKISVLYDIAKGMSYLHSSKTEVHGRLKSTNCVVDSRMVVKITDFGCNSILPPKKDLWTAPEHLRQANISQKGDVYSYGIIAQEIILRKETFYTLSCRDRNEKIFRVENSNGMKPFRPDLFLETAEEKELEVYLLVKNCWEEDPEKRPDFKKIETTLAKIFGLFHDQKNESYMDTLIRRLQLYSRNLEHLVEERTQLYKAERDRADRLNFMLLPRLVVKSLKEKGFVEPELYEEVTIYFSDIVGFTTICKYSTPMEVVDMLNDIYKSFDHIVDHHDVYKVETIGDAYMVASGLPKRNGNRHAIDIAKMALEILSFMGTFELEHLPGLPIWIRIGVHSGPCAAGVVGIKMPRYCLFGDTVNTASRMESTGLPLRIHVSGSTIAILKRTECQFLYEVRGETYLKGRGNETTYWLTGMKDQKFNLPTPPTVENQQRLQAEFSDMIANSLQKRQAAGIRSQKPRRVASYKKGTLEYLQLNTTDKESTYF

[2] = molecular target: T1, GC-C; format: binding
[3] = pH 5 (DMEM + 20 mM MES), read-out: cGMP response in T84 cells EC50 pH 5
[4] = pH 8 (DMEM + 50 mM sodium bicarbonate), read-out: cGMP response in T84 cells EC50 pH 8
[5] = read-out: Binding affinity for GC-C Ki pH 5, pH 5
[6] = read-out: Binding affinity for GC-C Ki pH 8, pH 8

Row | Structure (SMILES) | EC50 [1, 3] [nM] | EC50 [1, 4] [nM] | Ki [2, 5] [nM] | Ki [2, 6] [nM]
1 | CC(C)C[C@@H]1NC(=O)[C@H](CCC(=O)O)NC(=O)[C@@H]2CSSC[C@@H]3NC(=O)[C@H](C)NC(=O)[C@@H]4CCCN4C(=O)[C@H](CC(N)=O)NC(=O)[C@H](CSSC[C@H](N)C(=O)N2)NC(=O)[C@H](CSSC[C@@H](C(=O)N[C@@H](Cc2ccc(O)cc2)C(=O)O)NC(=O)CNC(=O)[C@H]([C@@H](C)O)NC3=O)NC1=O [Peptide 1, CCELCCNPACTGCY] (H-CCELCCNPACTGCY-OH; disulfide 1-6, 2-10, 5-13 (inferred); N-terminus and C-terminus assumed) | 13.4 | 114 | 2.9 | 2
2 | C[C@@H]1NC(=O)[C@@H]2CCCN2C(=O)[C@H](CC(N)=O)NC(=O)[C@@H]2CSSC[C@H](N)C(=O)N[C@H]3CSSC[C@H](NC1=O)C(=O)N[C@@H]([C@@H](C)O)C(=O)NCC(=O)N[C@H](C(=O)N[C@@H](Cc1ccc(O)cc1)C(=O)O)CSSC[C@H](NC(=O)[C@H](Cc1ccccc1)NC(=O)[C@H](CCC(=O)O)NC3=O)C(=O)N2 [Peptide 2, CCEFCCNPACTGCY] (H-CCEFCCNPACTGCY-OH; disulfide 1-6, 2-10, 5-13) | 74.4 | 982 | 5.9 | 5.7
3 | C[C@@H]1NC(=O)[C@@H]2CCCN2C(=O)[C@H](CC(N)=O)NC(=O)[C@@H]2CSSC[C@H](NC(=O)[C@H](CC(=O)O)NC(=O)[C@H](CC(=O)O)NC(=O)[C@@H](N)CC(N)=O)C(=O)N[C@H]3CSSC[C@H](NC1=O)C(=O)N[C@@H]([C@@H](C)O)C(=O)NCC(=O)N[C@H](C(=O)N[C@@H](Cc1ccc(O)cc1)C(=O)O)CSSC[C@H](NC(=O)[C@H](Cc1ccc(O)cc1)NC(=O)[C@H](CCC(=O)O)NC3=O)C(=O)N2 [Peptide 3, NDDCCEYCCNPACTGCY] (H-NDDCCEYCCNPACTGCY-OH; disulfide 4-9, 5-13, 8-16 (inferred); N-terminus and C-terminus assumed) | 170 | 4310 | 14.8 | 259
4 | C[C@@H]1NC(=O)[C@@H]2CCCN2C(=O)[C@H](CC(N)=O)NC(=O)[C@@H]2CSSC[C@H](NC(=O)[C@H](CC(=O)O)NC(=O)[C@@H](N)CC(=O)O)C(=O)N[C@H]3CSSC[C@H](NC1=O)C(=O)N[C@@H]([C@@H](C)O)C(=O)NCC(=O)N[C@H](C(=O)N[C@@H](Cc1ccc(O)cc1)C(=O)O)CSSC[C@H](NC(=O)[C@H](Cc1ccc(O)cc1)NC(=O)[C@H](CCC(=O)O)NC3=O)C(=O)N2 [Peptide 4, DDCCEYCCNPACTGCY] (H-DDCCEYCCNPACTGCY-OH; disulfide 3-8, 4-12, 7-15 (inferred); N-terminus and C-terminus assumed) | 50.4 | 2420 | 13.5 | 71.2
5 | C[C@@H]1NC(=O)[C@@H]2CCCN2C(=O)[C@H](CC(N)=O)NC(=O)[C@@H]2CSSC[C@H](NC(=O)[C@H](CC(=O)O)NC(=O)[C@H](CC(=O)O)NC(=O)[C@@H](N)CC(=O)O)C(=O)N[C@H]3CSSC[C@H](NC1=O)C(=O)N[C@@H]([C@@H](C)O)C(=O)NCC(=O)N[C@H](C(=O)N[C@@H](Cc1ccc(O)cc1)C(=O)O)CSSC[C@H](NC(=O)[C@H](Cc1ccc(O)cc1)NC(=O)[C@H](CCC(=O)O)NC3=O)C(=O)N2 [Peptide 5, DDDCCEYCCNPACTGCY] | 66.5 | 17000 | 29.3 | 162
6 | C[C@@H]1NC(=O)[C@@H]2CCCN2C(=O)[C@H](CC(N)=O)NC(=O)[C@@H]2CSSC[C@H](NC(=O)[C@H](CC(=O)O)NC(=O)[C@H](CC(=O)O)NC(=O)CN)C(=O)N[C@H]3CSSC[C@H](NC1=O)C(=O)N[C@@H]([C@@H](C)O)C(=O)NCC(=O)N[C@H](C(=O)N[C@@H](Cc1ccc(O)cc1)C(=O)O)CSSC[C@H](NC(=O)[C@H](Cc1ccc(O)cc1)NC(=O)[C@H](CCC(=O)O)NC3=O)C(=O)N2 [Peptide 7, GDDCCEYCCNPACTGCY] (H-GDDCCEYCCNPACTGCY-OH; disulfide 4-9, 5-13, 8-16 (inferred); N-terminus and C-terminus assumed) | 51.3 | 19700 | – | –
7 | C[C@@H]1NC(=O)[C@@H]2CCCN2C(=O)[C@H](CC(N)=O)NC(=O)[C@@H]2CSSC[C@H](NC(=O)[C@H](CC(=O)O)NC(=O)[C@H](CC(=O)O)NC(=O)[C@@H]3CCCN3)C(=O)N[C@H]3CSSC[C@H](NC1=O)C(=O)N[C@@H]([C@@H](C)O)C(=O)NCC(=O)N[C@H](C(=O)N[C@@H](Cc1ccc(O)cc1)C(=O)O)CSSC[C@H](NC(=O)[C@H](Cc1ccc(O)cc1)NC(=O)[C@H](CCC(=O)O)NC3=O)C(=O)N2 [Peptide 8, PDDCCEYCCNPACTGCY] (H-PDDCCEYCCNPACTGCY-OH; disulfide 4-9, 5-13, 8-16) | 83.4 | 4860 | – | –
8 | C[C@H](N)C(=O)N[C@@H](CC(=O)O)C(=O)N[C@@H](CC(=O)O)C(=O)N[C@H]1CSSC[C@@H]2NC(=O)[C@@H]3CSSC[C@@H](C(=O)N[C@@H](Cc4ccc(O)cc4)C(=O)O)NC(=O)CNC(=O)[C@H]([C@@H](C)O)NC(=O)[C@H](CSSC[C@H](NC1=O)C(=O)N[C@@H](CCC(=O)O)C(=O)N[C@@H](Cc1ccc(O)cc1)C(=O)N3)NC(=O)[C@H](C)NC(=O)[C@@H]1CCCN1C(=O)[C@H](CC(N)=O)NC2=O [Peptide 9, ADDCCEYCCNPACTGCY] | 124 | 9890 | 20.9 | 26.9
9 | CC(C)C[C@@H]1NC(=O)[C@H](CCC(=O)O)NC(=O)[C@@H]2CSSC[C@@H]3NC(=O)[C@H](C)NC(=O)[C@@H]4CCCN4C(=O)[C@H](CC(N)=O)NC(=O)[C@H](CSSC[C@H](NC(=O)[C@H](CC(=O)O)NC(=O)[C@H](CC(=O)O)NC(=O)[C@@H](N)CC(N)=O)C(=O)N2)NC(=O)[C@H](CSSC[C@@H](C(=O)N[C@@H](Cc2ccc(O)cc2)C(=O)O)NC(=O)CNC(=O)[C@H]([C@@H](C)O)NC3=O)NC1=O [Peptide 11, NDDCCELCCNPACTGCY] | 154 | 424 | 2.24 | 14.4
10 | CC(C)C[C@@H]1NC(=O)[C@H](CCC(=O)O)NC(=O)[C@@H]2CSSC[C@@H]3NC(=O)[C@H](C)NC(=O)[C@@H]4CCCN4C(=O)[C@H](CC(N)=O)NC(=O)[C@H](CSSC[C@H](NC(=O)[C@H](CC(=O)O)NC(=O)[C@H](CC(=O)O)NC(=O)[C@H](C)N)C(=O)N2)NC(=O)[C@H](CSSC[C@@H](C(=O)N[C@@H](Cc2ccc(O)cc2)C(=O)O)NC(=O)CNC(=O)[C@H]([C@@H](C)O)NC3=O)NC1=O [Peptide 13, ADDCCELCCNPACTGCY] | 10.7 | 669 | – | –
11 | CC(C)C[C@@H]1NC(=O)[C@H](CCC(=O)O)NC(=O)[C@@H]2CSSC[C@@H]3NC(=O)[C@H](C)NC(=O)[C@@H]4CCCN4C(=O)[C@H](CC(N)=O)NC(=O)[C@H](CSSC[C@H](NC(=O)[C@H](CC(=O)O)NC(=O)[C@@H](N)CC(=O)O)C(=O)N2)NC(=O)[C@H](CSSC[C@@H](C(=O)N[C@@H](Cc2ccc(O)cc2)C(=O)O)NC(=O)CNC(=O)[C@H]([C@@H](C)O)NC3=O)NC1=O [Peptide 16, DDCCELCCNPACTGCY] (H-DDCCELCCNPACTGCY-OH; disulfide 3-8, 4-12, 7-15 (inferred); N-terminus and C-terminus assumed) | 9.9 | 266 | – | –
12 | CC(C)C[C@@H]1NC(=O)[C@H](CCC(=O)O)NC(=O)[C@@H]2CSSC[C@@H]3NC(=O)[C@H](C)NC(=O)[C@@H]4CCCN4C(=O)[C@H](CC(N)=O)NC(=O)[C@H](CSSC[C@H](NC(=O)[C@H](CC(=O)O)NC(=O)[C@H](CC(=O)O)NC(=O)[C@@H]4CCCN4)C(=O)N2)NC(=O)[C@H](CSSC[C@@H](C(=O)N[C@@H](Cc2ccc(O)cc2)C(=O)O)NC(=O)CNC(=O)[C@H]([C@@H](C)O)NC3=O)NC1=O [Peptide 18, PDDCCELCCNPACTGCY] (H-PDDCCELCCNPACTGCY-OH; disulfide 4-9, 5-13, 8-16 (inferred); N-terminus and C-terminus assumed) | 8.9 | 1830 | – | –
13 | CC(C)C[C@@H]1NC(=O)[C@H](CCC(=O)O)NC(=O)[C@@H]2CSSC[C@@H]3NC(=O)[C@H](C)NC(=O)[C@@H]4CCCN4C(=O)[C@H](CC(N)=O)NC(=O)[C@H](CSSC[C@H](NC(=O)[C@H](CC(=O)O)NC(=O)[C@H](CC(=O)O)NC(=O)CN)C(=O)N2)NC(=O)[C@H](CSSC[C@@H](C(=O)N[C@@H](Cc2ccc(O)cc2)C(=O)O)NC(=O)CNC(=O)[C@H]([C@@H](C)O)NC3=O)NC1=O [Peptide 19, GDDCCELCCNPACTGCY] (H-GDDCCELCCNPACTGCY-OH; disulfide 4-9, 5-13, 8-16 (inferred); N-terminus and C-terminus assumed) | 13.7 | 842 | – | –
14 | CC(C)C[C@@H]1NC(=O)[C@H](CCC(=O)O)NC(=O)[C@@H]2CSSC[C@@H]3NC(=O)[C@H](C)NC(=O)[C@@H]4CCCN4C(=O)[C@H](CC(N)=O)NC(=O)[C@H](CSSC[C@H](NC(=O)[C@H](CC(=O)O)NC(=O)[C@H](CC(=O)O)NC(=O)[C@@H](N)CC(=O)O)C(=O)N2)NC(=O)[C@H](CSSC[C@@H](C(=O)O)NC(=O)CNC(=O)[C@H]([C@@H](C)O)NC3=O)NC1=O [Peptide 20, DDDCCELCCNPACTGC] (H-DDDCCELCCNPACTGC-OH; disulfide 4-9, 5-13, 8-16 (inferred); N-terminus and C-terminus assumed) | 31 | 2790 | 8.5 | 30.6
15 | C[C@@H]1NC(=O)[C@@H]2CCCN2C(=O)[C@H](CC(N)=O)NC(=O)[C@@H]2CSSC[C@H](NC(=O)[C@H](CCC(=O)O)NC(=O)[C@H](CCC(=O)O)NC(=O)[C@@H](N)CCC(=O)O)C(=O)N[C@H]3CSSC[C@H](NC1=O)C(=O)N[C@@H]([C@@H](C)O)C(=O)NCC(=O)N[C@H](C(=O)N[C@@H](Cc1ccc(O)cc1)C(=O)O)CSSC[C@H](NC(=O)[C@H](Cc1ccc(O)cc1)NC(=O)[C@H](CCC(=O)O)NC3=O)C(=O)N2 [Peptide 22, EEECCEYCCNPACTGCY] (H-EEECCEYCCNPACTGCY-OH; disulfide 4-9, 5-13, 8-16 (inferred); N-terminus and C-terminus assumed) | 269 | – | – | –
